Source: PubChem BioAssay AID624172 (National Center for Advancing Translational Sciences (NCATS), 2012)
Hit rate of the full screen: of about 380,000 compounds, about 25 (0.007%) were called active. This list was built around the results that the source calls inconclusive (neither active nor inactive); the mix of calls is not that of the screen. Calls come from the whole dose curve; as a rule, active = well fitted activation curve with a large enough effect; inconclusive = small, poorly fitted or top-dose-only effect; inactive = no such curve, though single readings can be large or run the other way. Potencies of inconclusive entries are left out as doubtful fits.

Molecular target: Glucagon-like peptide 1 receptor (Homo sapiens) (UniProt P43220)
Experiment: qHTS of GLP-1 Receptor Agonists; for activation: % of control where 0% means no effect
Conditions: HEK293 GLP-1R CRE-luciferase, luminescence, 4-6 h, cells express a hypersensitive GLP-1R form; activation: at 45.6 µM (top of the series) unless noted
Potency is the fitted concentration of half-maximal effect; tags give direction and shape of the fitted curve.

Sequence of UniProt P43220 (P43220 whole entry, looked up): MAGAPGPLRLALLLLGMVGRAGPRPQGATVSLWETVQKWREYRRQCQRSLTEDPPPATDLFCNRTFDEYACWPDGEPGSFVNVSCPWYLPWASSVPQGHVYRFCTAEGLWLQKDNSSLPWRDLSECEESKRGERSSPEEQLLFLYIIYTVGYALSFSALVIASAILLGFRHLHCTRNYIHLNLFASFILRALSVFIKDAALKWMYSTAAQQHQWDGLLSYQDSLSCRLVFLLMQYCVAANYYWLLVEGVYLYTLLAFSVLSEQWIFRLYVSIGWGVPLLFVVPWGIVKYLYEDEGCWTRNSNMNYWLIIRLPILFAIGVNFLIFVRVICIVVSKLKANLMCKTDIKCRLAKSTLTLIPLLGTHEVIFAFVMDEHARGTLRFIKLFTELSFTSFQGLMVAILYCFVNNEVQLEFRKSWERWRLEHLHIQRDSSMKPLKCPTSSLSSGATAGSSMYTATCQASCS

SMILES | Potency | activation
CCN1C(=O)c2ccccc2S(=O)c2ccc(C(=O)NCc3ccc(OC)cc3)cc21 (stereo not drawn) | inactive | –
CN(C)S(=O)(=O)c1ccc(N2CCCC2)c(C(=O)Nc2nc3c(ccc4ccccc43)s2)c1 | inactive | –
C=CCN1N=C(c2ccc(Cl)s2)CSC1=O | inconclusive [activator, partial curve] | –
COc1ccc(CCNC(=O)c2cccs2)cc1 | inactive | –
O=C(CCC(=O)c1ccccc1)NCc1cccc(C(F)(F)F)c1 | inconclusive [activator, partial curve, poor fit] | –
O=C(OCc1ccc(Br)cc1)c1cc([N+](=O)[O-])ccc1N1CCOCC1 | inconclusive [activator, partial curve] | –
COc1ccc(Br)cc1-c1nc2c(c(=O)[nH]c(=O)n2Cc2ccccc2)n1C | inactive | –
COc1ccc(-c2nc3ccc(C)cn3c2Cc2ccc(C)cc2)cc1OC | inconclusive [activator, partial curve, poor fit] | –
COC(=O)c1ccc(OCC2c3cc(OC)c(OC)cc3CCN2C(=O)Cc2ccc(OC)cc2)cc1 (stereo not drawn) | inconclusive [activator, partial curve, poor fit] | –
Cc1cc(C)n2c(SCc3ccc(Br)cc3)nnc2n1 | inconclusive [activator, partial curve, poor fit] | –
CCNc1nc(NC(C)C)nc(SCCOC(=O)c2ccccc2)n1 | inconclusive [activator, partial curve, poor fit] | –
COc1ccccc1C/C(N)=N/OC(=O)c1cccc([N+](=O)[O-])c1 | inactive | –
Cc1cccc(C)c1NC(=O)CC(NCc1ccco1)C(=O)O (stereo not drawn) | – | inconclusive: 48.7% [activator]
COc1cccc(CNC(=O)Cn2c(=O)ccc3cc(S(=O)(=O)N4CCC(C)CC4)ccc32)c1 | inactive | –
COc1cc(SC)ccc1C(=O)NC1CCCCC1 | inconclusive [activator, full curve, poor fit] | –
COc1ccc(/C=C2\Sc3ccc(C(=O)NCc4cccnc4)cc3N(C)C2=O)cc1OC | inconclusive [activator, partial curve, poor fit] | –
COc1cc(C(=O)NC(C)c2cc(C)ccc2C)ccc1OCC(=O)N1CCOCC1 (stereo not drawn) | inactive | –
COc1cccc(-c2cnc3c(NC=O)cc(-c4ccc(OC)cc4OC)cn23)c1 | inconclusive [activator, partial curve] | –
COc1ccc(Nc2cc(C)nc3ncnn23)cc1Cl | inconclusive [activator, single point] | –
Cc1ccc(C)c(S(=O)(=O)N2CCN(C(=O)c3cncc(Br)c3)CC2)c1 | inactive | –
Cn1c(=O)[nH]c(=O)c2c1nc(SCCO)n2CCCc1ccccc1 | inconclusive [activator, partial curve, poor fit] | –
Nc1nc(Nc2ccccc2)nc(N2CCCC2)c1[N+](=O)[O-] | inconclusive [activator, partial curve, poor fit] | –

SMILES | Potency | activation
O=C(O)c1ccc(C(=O)C(=O)c2ccccc2)cc1 | inactive | –
COc1cc(NC(=O)C2CSC3(C)CCC(=O)N23)c(OC)cc1Cl (stereo not drawn) | inactive | –
O=C(Nc1ccc(F)cc1)c1oc2ccccc2c1NC(=O)C12CC3CC(CC(C3)C1)C2 | inactive | –
CCOc1cc(NC(=O)C2CCCCC2)c(OCC)cc1NC(=O)c1ccccn1 | inactive | –
Cc1ccc(S(=O)(=O)N/N=C/c2ccc(O)cc2O)cc1[N+](=O)[O-] | – | inconclusive: 57.7% [activator]
COc1ccc(-c2cc(NC(C)=O)c3ncc(-c4cccc(C(F)(F)F)c4)n3c2)c(OC)c1 | inconclusive [activator, partial curve, poor fit] | –
COc1cccc(-c2nn(-c3ccccc3)cc2C(=O)Nc2nccs2)c1 | inactive | –
COc1ccc(Nc2nc(N)nc(CSc3nc(C)cc(C)n3)n2)cc1 | inactive | –
COc1ccc(/C=N/Nc2nonc2N)cc1OC | inconclusive [activator, single point] | –
COc1ccccc1C(=O)OCc1nc(N)nc(Nc2ccccc2C)n1 | inconclusive [activator, partial curve] | –
COc1ccc(C2C(=O)N(C3CCCCCC3)CC(=O)N2Cc2ccccc2)cc1OC (stereo not drawn) | inconclusive [activator, single point] | –
Cc1nn(-c2ccccc2)c(N)c1N=Nc1cccnc1 | inconclusive [activator, partial curve, poor fit] | –
O=C1CSC(c2cn(-c3ccccc3)nc2-c2ccccc2)N1Cc1ccco1 (stereo not drawn) | inconclusive [activator, partial curve, poor fit] | –
CC1Cc2cc(S(=O)(=O)N3CCCC(C(=O)N4CCCCC4)C3)ccc2N1C(=O)C1CC1 (stereo not drawn) | inconclusive [activator, partial curve] | –
Nc1nc(CSc2nc3ccccc3s2)nc(N2CCCCC2)n1 | inconclusive [activator, partial curve, poor fit] | –
COc1cc2cc(-c3ccc(OC)c(OC)c3C)nc(N)c2cc1OC | inconclusive [activator, partial curve, poor fit] | –
CCCCC1=CC2=C(c3ccco3)C(=O)C(C)(OC(=O)c3ccc(OC)cc3)C(=O)C2=CN1CCCCO (stereo not drawn) | inactive | –
COC(=O)C(C)Sc1nc2c(c(=O)[nH]c(=O)n2C)n1CCCc1ccccc1 (stereo not drawn) | inconclusive [activator, partial curve, poor fit] | –
CSc1ncccc1C(=O)OCc1ccccc1Cl | inconclusive [activator, partial curve, poor fit] | –
Cn1ncc2c(Nc3cccc([N+](=O)[O-])c3)ncnc21 | inconclusive [activator, partial curve, poor fit] | –
COc1ccc(-c2cc(NC=O)c3ncc(-c4ccc(OC)c(OC)c4)n3c2)cc1 | inconclusive [activator, full curve, poor fit] | –
